In all, about 52,000 compounds went through this assay and about 4,300 (8.3%) were called active. Cut-off read from the data, not from the text of the source: active = survival mostly below about 52% (no sharp cut-off); inactive = mostly above about 56%. Some of the results follow.
System: DeltatarO mutant
Experiment: growth inhibition of S. aureus wild type versus tarO mutant, primary screen, teichoic acid synthesis inhibitors, RN4220, OD600 (AID 463173)
Details: OD600, 18 h, stronger effect = lower value, screened at 18.75 µg/mL (by protocol)

Compound	survival
CSc1ccc(NC(=O)C2CCN(c3ncccn3)CC2)cc1	inactive: 110%
CCN1CCN(c2ncc3c(n2)CCN(CC(C)C)C3)CC1	inactive: 86%
Cc1ccc(S(=O)(=O)CCc2nnc(NC(=O)CCCC(=O)Nc3cc(C)on3)s2)cc1	inactive: 104%
Cc1cc(C)cc(-n2c(SCC(=O)Nc3cccc(F)c3)nc3c([nH]c4ccccc43)c2=O)c1	inactive: 95%
COc1ccc(N2CCN(C(=O)COc3ccccc3C#N)CC2)cc1	inactive: 91%
COc1ccc(OC)c(NC(=O)Cn2c(=O)n(Cc3ccco3)c(=O)c3cc(OC)c(OC)cc32)c1	inactive: 91%
Cc1ccc(C)c(NC(=O)C(Cc2ccccc2)n2cccc2)c1 (configuration not stated)	inactive: 107%
CCOC(=O)C1=C(N)Oc2cc(C)oc(=O)c2C1c1ccccc1F (configuration not stated)	inactive: 93%
C=CCn1c(SCC(=O)Nc2cc(OC)c(NC(=O)c3ccco3)cc2OC)nnc1-c1ccncc1	inactive: 90%
Cc1ccc(C(=O)Nc2ccc(-c3nc4ccccc4o3)cc2)cc1Cl	inactive: 68%
Brc1ccc(Nc2c3c(nc4nncn24)CCC3)cc1	inactive: 65%
COc1ccccc1CNC(=O)CCCCn1c(=O)c2ccccc2n(CC(=O)Nc2c(C)cc(C)cc2C)c1=O	inactive: 97%
CCOc1ccccc1CNC(=O)CCC(=O)N1CCSc2ccccc21	inactive: 107%
Clc1nc2ccccc2c(N2CCCCC2)c1CNC1CC1	inactive: 96%
COc1ccccc1Cc1nc2ccccc2nc1SCC(=O)Nc1ccc2c(c1)OCO2	inactive: 73%
CCCN(CCC)C(=O)CSc1c2c(nc3ccc(Cl)cc13)CCCC2	active: 38%
Cc1ccc(NC(=O)CN2C(=O)C(c3ccc(C(C)(C)C)cc3)=NC2(C)C)cc1	inactive: 64%
O=[N+]([O-])c1cc(-c2nc(-c3ccccc3)no2)ccc1NCc1cccnc1	active: 47%
CCOC(=O)c1c(-c2ccc(OC)c(OC)c2)csc1NC(=O)c1ccc(C)cc1	inactive: 57%

Compound	survival
CCCCN1CCCc2cc(CN(CCCN3CCOCC3)C(=O)Nc3ccc(CC)cc3)ccc21	inactive: 102%
O=C(O)c1cccc(NC(=O)c2cc3cc(Br)cc(Br)c3oc2=O)c1	inactive: 82%
COc1ccc(-c2[nH]nc3oc(=O)cc(C)c23)cc1	inactive: 84%
COc1ccc(S(=O)(=O)N(CC(=O)NCCSc2ccccc2)c2ccc(C)cc2)cc1	inactive: 60%
Cc1cc(=O)[nH]c(SCC(=O)NC2CCCCC2)n1	inactive: 84%
CC(=O)c1cccc(NC(=O)Cc2ccc(NC(=O)N3CCCCc4ccccc43)cc2)c1	inactive: 67%
CCCCNc1oc(-c2ccc(COc3ccccc3C)o2)nc1C#N	inactive: 112%
CCOC(=O)c1cc(-c2ccccc2)n(CCC(=O)NCCc2cccc(C)c2)c1C	inactive: 58%
COc1ccc(S(=O)(=O)NCCc2sc3nc(-c4ccc(C)cc4)nn3c2C)cc1C	inactive: 86%
Cc1ccc(NC(=O)C2CCC(CNS(=O)(=O)c3ccc4c(c3)CCCC(=O)N4)CC2)cc1F (configuration not stated)	inactive: 87%
COCCNc1nc2c(c(=O)n(Cc3cccc(Cl)c3)c(=O)n2C)n1C	inactive: 54%
COc1ccc2c(c1)c1c(c(=O)n(Cc3ccccc3)c(=O)n1Cc1ccccc1Cl)n2C	inactive: 83%
COc1ccc(OCC(=O)Nc2c(C(=O)N3CCN(c4ccccc4)CC3)oc3ccccc23)cc1	inactive: 84%
CCc1ccc(NC(=O)C2=C(C)C(=O)OC23CCCCC3)cc1	inactive: 77%
CCOc1ccccc1C(=O)NC1(C(F)(F)F)C(=O)Nc2c1c(=O)[nH]c(=O)n2-c1ccccc1 (configuration not stated)	inactive: 78%
Cc1cc(C)c(Cn2c3ccccc3c3cnn(CC(=O)NCCC4=CCCCC4)c(=O)c32)c(C)c1	inactive: 72%
COc1cccc(CNC(=O)c2ccc3nc(-c4ccccc4)c(-c4ccccc4)nc3c2)c1OC	inactive: 74%
Cc1ccc(S(=O)(=O)c2cn(Cc3ccccc3)c3cc(N4CCCC4)c(F)cc3c2=O)cc1	inactive: 71%
Cc1ccccc1OCC(=O)Nc1ccc(C(=O)OCc2cc(=O)n3ccsc3n2)cc1	inactive: 117%

Compound	survival
Cc1ccccc1NC(=O)c1nc(S(C)(=O)=O)ncc1N(Cc1ccco1)Cc1sccc1C	active: 43%
CCN1CC=C2C(C#N)=C(N)C(C#N)(C#N)C(c3ccc(OC)c4ccccc34)C2C1 (configuration not stated)	inactive: 108%
C1Cc2nn3c(c2C1)n1nc2c(c1n1nc4c(c31)CCC4)CCC2	inactive: 73%
CCN(C(=O)CCc1nc(-c2ccc(C)cc2)no1)c1cccc(Cl)c1	active: -5%
COc1cc2c(cc1OC)C(COc1ccc3c(C)cc(=O)oc3c1)N(C(=O)Cc1ccccc1)CC2 (configuration not stated)	inactive: 70%
COC(=O)c1cc2sccc2n1CC(=O)Nc1ccc(C)cc1C	inactive: 102%
O=C(CCN1CCN(CCO)CC1)Nc1ccc(Br)cc1	inactive: 67%
O=C(CCC1CCCC1)N1CCN(C2CCCCC2)CC1	inactive: 70%
COc1ccc(C)cc1NC(=O)c1cc2ccccn2n1	inactive: 78%
CCc1ccc(NC(=O)C2CCCN(S(=O)(=O)c3cccc4nsnc34)C2)cc1 (configuration not stated)	inactive: 86%
COc1ccc(Nc2nnc(-c3ccc(C)c(S(=O)(=O)NCc4nc5ccccc5[nH]4)c3)c3ccccc23)cc1	inactive: 126%
CN(C)CC[n+]1ccc(C(=O)c2ccccc2)cc1	inactive: 70%
Cc1sc2nc(SCC(=O)NCCCN3CCOCC3)[nH]c(=O)c2c1C	inactive: 95%
CCC(C)Sc1oc(-c2ccco2)nc1S(=O)(=O)c1ccc(Cl)cc1 (configuration not stated)	active: 49%
Clc1ccc(-c2csc(-c3nc(-c4ccc(Br)s4)cs3)n2)cc1	inactive: 90%
O=C(NCc1ccc(Cl)cc1)c1ccc2c(c1)NC(=O)C(CS(=O)(=O)Cc1ccc(F)cc1Cl)N2 (configuration not stated)	inactive: 71%
Cc1ccc(NCc2nnc(SCC(=O)N3CCOCC3)o2)c(C)c1	inactive: 74%
CCOc1ccccc1C(=O)Nc1ccc(-n2nncc2-c2ccccc2)cc1	inactive: 125%
COC(=O)C1=C(C)OC(N)=C(C#N)C1c1cc2ccc(C)cc2[nH]c1=O (configuration not stated)	inactive: 75%
